Reference: PMC6446853
Results are given in words; binding and its absence hold for the method and conditions named. In cells and extracts the contact can be indirect. Some binding calls cover weakened binding; strength is not graded here.

Amino acid sequences for entries named in this document (tags omitted).
UniProt P14635: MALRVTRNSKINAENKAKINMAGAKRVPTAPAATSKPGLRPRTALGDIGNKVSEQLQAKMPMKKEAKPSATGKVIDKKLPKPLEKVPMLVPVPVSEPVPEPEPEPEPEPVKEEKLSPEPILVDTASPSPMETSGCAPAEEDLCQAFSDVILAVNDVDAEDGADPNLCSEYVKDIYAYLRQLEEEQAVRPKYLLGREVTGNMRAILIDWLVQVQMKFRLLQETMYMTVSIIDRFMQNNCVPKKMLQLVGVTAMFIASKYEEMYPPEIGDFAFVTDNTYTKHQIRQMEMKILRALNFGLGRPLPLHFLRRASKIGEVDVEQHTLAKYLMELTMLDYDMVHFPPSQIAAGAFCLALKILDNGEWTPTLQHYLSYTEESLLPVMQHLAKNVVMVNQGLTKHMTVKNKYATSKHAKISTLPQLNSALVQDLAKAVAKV
UniProt Q14980: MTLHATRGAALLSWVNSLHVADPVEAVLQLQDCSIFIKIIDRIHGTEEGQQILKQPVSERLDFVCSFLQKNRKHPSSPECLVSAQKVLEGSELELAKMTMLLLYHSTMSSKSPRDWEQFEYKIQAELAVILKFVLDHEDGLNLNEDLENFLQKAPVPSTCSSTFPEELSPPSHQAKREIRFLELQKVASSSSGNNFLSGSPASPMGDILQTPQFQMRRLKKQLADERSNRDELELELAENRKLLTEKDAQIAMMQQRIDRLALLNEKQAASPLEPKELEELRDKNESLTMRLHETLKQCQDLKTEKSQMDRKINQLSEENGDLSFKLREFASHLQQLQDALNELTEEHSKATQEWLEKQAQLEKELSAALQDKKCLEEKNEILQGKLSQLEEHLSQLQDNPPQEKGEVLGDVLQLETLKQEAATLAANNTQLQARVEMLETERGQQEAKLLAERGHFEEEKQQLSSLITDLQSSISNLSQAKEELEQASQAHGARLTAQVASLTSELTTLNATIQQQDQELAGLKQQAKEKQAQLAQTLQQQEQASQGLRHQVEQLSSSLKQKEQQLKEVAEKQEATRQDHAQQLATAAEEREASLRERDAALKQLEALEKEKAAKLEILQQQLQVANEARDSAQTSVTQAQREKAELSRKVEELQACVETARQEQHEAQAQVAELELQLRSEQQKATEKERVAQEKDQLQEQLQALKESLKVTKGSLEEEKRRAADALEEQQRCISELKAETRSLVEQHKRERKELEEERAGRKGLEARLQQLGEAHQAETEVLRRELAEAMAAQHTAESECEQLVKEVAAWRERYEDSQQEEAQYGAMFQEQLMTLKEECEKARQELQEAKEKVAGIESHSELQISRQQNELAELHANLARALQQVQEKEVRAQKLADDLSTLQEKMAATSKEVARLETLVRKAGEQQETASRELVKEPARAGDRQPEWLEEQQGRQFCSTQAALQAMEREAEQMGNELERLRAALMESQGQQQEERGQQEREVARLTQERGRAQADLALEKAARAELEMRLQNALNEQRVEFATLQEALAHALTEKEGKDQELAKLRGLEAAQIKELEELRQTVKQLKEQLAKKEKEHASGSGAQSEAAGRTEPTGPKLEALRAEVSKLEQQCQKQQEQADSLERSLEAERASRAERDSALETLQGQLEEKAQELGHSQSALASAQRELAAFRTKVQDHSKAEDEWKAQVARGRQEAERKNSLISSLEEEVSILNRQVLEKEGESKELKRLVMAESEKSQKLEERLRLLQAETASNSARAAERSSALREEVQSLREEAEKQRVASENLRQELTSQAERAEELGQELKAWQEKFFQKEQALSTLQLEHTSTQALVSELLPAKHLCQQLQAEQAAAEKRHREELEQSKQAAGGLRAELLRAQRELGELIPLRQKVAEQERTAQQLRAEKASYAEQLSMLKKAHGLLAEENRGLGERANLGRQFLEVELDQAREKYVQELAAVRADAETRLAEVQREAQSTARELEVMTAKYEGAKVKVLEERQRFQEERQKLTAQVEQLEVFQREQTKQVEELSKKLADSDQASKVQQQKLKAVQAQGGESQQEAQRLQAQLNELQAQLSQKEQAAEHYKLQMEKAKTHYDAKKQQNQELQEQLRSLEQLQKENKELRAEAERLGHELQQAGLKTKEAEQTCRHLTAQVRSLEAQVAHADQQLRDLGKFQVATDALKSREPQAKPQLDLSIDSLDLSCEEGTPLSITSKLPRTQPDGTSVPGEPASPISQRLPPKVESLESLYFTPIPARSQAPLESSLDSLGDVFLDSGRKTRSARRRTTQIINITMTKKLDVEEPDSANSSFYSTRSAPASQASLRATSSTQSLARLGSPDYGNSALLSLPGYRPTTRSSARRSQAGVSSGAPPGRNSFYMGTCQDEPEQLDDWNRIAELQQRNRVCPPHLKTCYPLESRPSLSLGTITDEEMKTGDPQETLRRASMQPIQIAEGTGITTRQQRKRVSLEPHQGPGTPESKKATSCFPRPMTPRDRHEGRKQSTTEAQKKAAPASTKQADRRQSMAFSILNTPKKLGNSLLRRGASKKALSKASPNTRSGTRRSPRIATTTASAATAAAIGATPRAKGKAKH

Assays:
mCh-MAD1^101–718 (human) = molecular target: T1, mCh-MAD1^101–718 (human) (UniProt Q9Y6D9); assay: co-IP; cells cotransfected for 20 h with Myc-CCNB1 and mCherry-MAD1 constructs (HEK293T in the methods, HeLa in the legend); MAD1 IP with sheep anti-mCherry; Western blot for Myc
T1 sequence: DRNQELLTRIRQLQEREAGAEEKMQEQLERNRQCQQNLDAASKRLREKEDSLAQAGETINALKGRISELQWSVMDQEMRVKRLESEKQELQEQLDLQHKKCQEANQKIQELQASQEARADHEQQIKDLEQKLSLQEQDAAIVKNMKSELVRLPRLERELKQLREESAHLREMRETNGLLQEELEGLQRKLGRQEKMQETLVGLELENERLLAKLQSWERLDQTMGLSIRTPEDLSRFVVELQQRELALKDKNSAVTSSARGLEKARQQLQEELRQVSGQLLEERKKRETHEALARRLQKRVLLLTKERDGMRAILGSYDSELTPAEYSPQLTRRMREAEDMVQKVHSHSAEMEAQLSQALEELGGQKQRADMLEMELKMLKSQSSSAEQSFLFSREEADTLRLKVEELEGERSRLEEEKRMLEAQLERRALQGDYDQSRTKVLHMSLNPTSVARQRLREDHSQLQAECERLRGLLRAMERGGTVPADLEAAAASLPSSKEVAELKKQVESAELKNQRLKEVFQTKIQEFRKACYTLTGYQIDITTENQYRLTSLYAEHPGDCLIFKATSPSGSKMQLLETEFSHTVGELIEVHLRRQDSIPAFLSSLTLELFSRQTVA

[1] = molecular target: T2, full-length mCh-MAD1 (human) (UniProt Q9Y6D9); assay: as above
T2 sequence: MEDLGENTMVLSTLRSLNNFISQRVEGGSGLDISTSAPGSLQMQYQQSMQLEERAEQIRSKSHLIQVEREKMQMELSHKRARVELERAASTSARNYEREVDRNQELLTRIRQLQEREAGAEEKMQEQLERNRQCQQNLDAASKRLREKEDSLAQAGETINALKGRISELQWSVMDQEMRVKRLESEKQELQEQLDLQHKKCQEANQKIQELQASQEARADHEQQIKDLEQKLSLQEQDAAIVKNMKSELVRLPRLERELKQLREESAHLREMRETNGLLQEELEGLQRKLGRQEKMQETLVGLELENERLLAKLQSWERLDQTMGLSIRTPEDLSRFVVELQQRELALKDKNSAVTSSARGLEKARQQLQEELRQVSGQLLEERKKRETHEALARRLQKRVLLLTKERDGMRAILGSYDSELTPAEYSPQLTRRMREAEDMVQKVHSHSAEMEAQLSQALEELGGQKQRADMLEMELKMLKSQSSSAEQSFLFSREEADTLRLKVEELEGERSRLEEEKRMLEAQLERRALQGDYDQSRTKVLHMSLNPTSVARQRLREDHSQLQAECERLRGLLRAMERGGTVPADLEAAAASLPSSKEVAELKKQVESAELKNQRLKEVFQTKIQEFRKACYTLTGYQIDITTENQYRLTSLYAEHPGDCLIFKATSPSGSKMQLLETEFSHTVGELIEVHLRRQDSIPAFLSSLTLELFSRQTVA

mCh-MAD1^241–718 (human) = molecular target: T3, mCh-MAD1^241–718 (human) (UniProt Q9Y6D9); assay: as above
T3 sequence: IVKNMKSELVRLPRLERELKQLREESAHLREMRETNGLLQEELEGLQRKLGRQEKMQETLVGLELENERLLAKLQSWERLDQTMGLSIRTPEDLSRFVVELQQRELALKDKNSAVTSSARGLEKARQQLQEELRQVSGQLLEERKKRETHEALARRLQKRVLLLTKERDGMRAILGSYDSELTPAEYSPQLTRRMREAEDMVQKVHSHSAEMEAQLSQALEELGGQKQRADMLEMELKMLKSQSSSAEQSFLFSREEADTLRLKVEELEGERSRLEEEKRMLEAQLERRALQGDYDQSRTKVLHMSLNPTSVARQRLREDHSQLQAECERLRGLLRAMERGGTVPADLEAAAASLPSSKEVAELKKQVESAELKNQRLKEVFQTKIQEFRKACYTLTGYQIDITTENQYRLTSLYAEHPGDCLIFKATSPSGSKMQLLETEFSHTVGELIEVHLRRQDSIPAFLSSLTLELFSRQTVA

[2] = molecular target: CCNB1-mCherry (cyclin B1 tagged at the endogenous locus) (human (endogenous in HeLa)) (UniProt P14635); assay: co-IP; CCNB1-mCherry precipitated with anti-mCherry antibodies from CCNB1-mCh or parental HeLa cells arrested in mitosis; Western blotting; also tested without ongoing MPS1 activity (Fig. S2 B)

Row | Substance | binding (mCh-MAD1^101–718 (human)) | binding [1] | binding (mCh-MAD1^241–718 (human)) | binding [2]
1 | Myc-CCNB1 (from UniProt P14635 1-433) | no binding | binds | no binding | –
2 | spindle protein NuMA (from UniProt Q14980 1-2115) | – | – | – | binds
